Results: the supplement of paper PMC3722116
Growth of fresh clinical P. falciparum isolates by hypoxanthine uptake over 42 h; for most isolates 1.6-1,647 nM mefloquine, 0.044-87 nM artesunate, 10-10,256 nM chloroquine, 2.4-236 nM lumefantrine. EC50, lower = more sensitive; slope from the same fit, higher = steeper. No active / inactive call. Fits with a coefficient of variation above 100% are not listed here; 15-28% of fits exceed 15%. Isolates are numbered anew.

How the values were obtained:
artesunate [1] = compound: T1, C[C@H]1[C@H](OC(=O)CCC(=O)O)O[C@@H]2O[C@@]3(C)CC[C@H]4[C@H](C)CC[C@@H]1[C@@]24OO3 [artesunate]
Experimental: (§1)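 Hypoxanthine uptake by fresh isolates, duplicate serial dilutions, 24 h of drug plus 18 h after the label; sigmoid fit per isolate.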

mefloquine [2] = compound: T2, OC(c1cc(C(F)(F)F)nc2c(C(F)(F)F)cccc12)C1CCCCN1 [mefloquine]
Experimental: as §1

artesunate [3] = compound: T1, artesunate; test: slope of the dose-response curve (dimensionless); higher = steeper concentration-effect curve
Experimental: as §1

mefloquine [4] = compound: T2, mefloquine; test: as above
Experimental: as §1

chloroquine [5] = compound: T3, CCN(CC)CCCC(C)Nc1ccnc2cc(Cl)ccc12 [chloroquine]
Experimental: as §1

chloroquine [6] = compound: T3, chloroquine; test: slope of the dose-response curve (dimensionless); higher = steeper concentration-effect curve
Experimental: as §1

Test System | EC50 of parasite growth (artesunate [1]) [ng/mL] | EC50 of parasite growth (mefloquine [2]) [ng/mL] | slope (artesunate [3]) | slope (mefloquine [4]) | EC50 of parasite growth (chloroquine [5]) [ng/mL] | slope (chloroquine [6])
Plasmodium falciparum isolate 288 (pfmdr1 allele: 1042D, pfmdr1 copies: 1) | 10.3 | 32.7 | 4.81 | 2.41 | – | –
Plasmodium falciparum isolate 153 (pfmdr1 allele: 86N, 1042N, pfmdr1 copies: 2) | 2.63 | 73.7 | 9.58 | 7.25 | – | –
Plasmodium falciparum isolate 172 (pfmdr1 allele: 86N, 1042N, pfmdr1 copies: 3) | 4.06 | – | 1.84 | – | – | –
Plasmodium falciparum isolate 187 (pfmdr1 allele: 86N, 1042N, pfmdr1 copies: 1) | 0.349 | 8.27 | 6.06 | 1.38 | – | –
Plasmodium falciparum isolate 273 (pfmdr1 allele: 86N, 1042N, pfmdr1 copies: 2) | 1.06 | 46.3 | 9.79 | 2.22 | – | –
Plasmodium falciparum isolate 256 (pfmdr1 allele: 86N, 1042N, pfmdr1 copies: 2) | 5.65 | – | 5.86 | – | – | –
Plasmodium falciparum isolate 127 (pfmdr1 allele: 86N, 1042N, pfmdr1 copies: 1) | 4.73 | – | 3.83 | – | – | –
Plasmodium falciparum isolate 140 (pfmdr1 allele: 86N, 1042N, pfmdr1 copies: 1) | 0.578 | 18.4 | 2.62 | 1.85 | – | –
Plasmodium falciparum isolate 283 (pfmdr1 allele: 86N, 1042N, pfmdr1 copies: 5) | – | – | – | – | 120 | 2.24
Plasmodium falciparum isolate 443 (pfmdr1 allele: 86N, 1042N, pfmdr1 copies: 1) | – | 6.12 | – | 2.19 | – | –
Plasmodium falciparum isolate 479 (pfmdr1 allele: 86N, 1042N, pfmdr1 copies: 1) | 0.552 | 13.4 | 4.95 | 2.8 | – | –
Plasmodium falciparum isolate 66 (pfmdr1 allele: 86Y, pfmdr1 copies: 1) | 1.58 | 4.59 | 3.83 | 2.68 | – | –
Plasmodium falciparum isolate 185 (pfmdr1 allele: 86N, 1042N, pfmdr1 copies: 1) | 2.64 | 48.3 | 9.15 | 2.19 | – | –
Plasmodium falciparum isolate 475 (pfmdr1 allele: 86N, 1042N, pfmdr1 copies: 3) | 0.175 | – | 0.947 | – | – | –
Plasmodium falciparum isolate 30 (pfmdr1 allele: 86N, 1042N, pfmdr1 copies: 1) | 1.32 | 32.3 | 4.23 | 3.74 | – | –
Plasmodium falciparum isolate 449 (pfmdr1 allele: 86N, 1042N, pfmdr1 copies: 2) | – | – | – | – | 193 | 2.89
Plasmodium falciparum isolate 167 (pfmdr1 allele: 86Y, pfmdr1 copies: 1) | 1.68 | 4.43 | 15.1 | 1.59 | – | –
Plasmodium falciparum isolate 145 (pfmdr1 allele: 86N, 1042N, pfmdr1 copies: 4) | – | 116 | – | 9.84 | – | –
Plasmodium falciparum isolate 243 (pfmdr1 allele: 86N, 1042N, pfmdr1 copies: 2) | – | – | – | – | 43.7 | 0.914
Plasmodium falciparum isolate 261 (pfmdr1 allele: 86N, 1042N, pfmdr1 copies: 2) | 5.11 | 63.3 | 7.53 | 9.98 | – | –
Plasmodium falciparum isolate 116 (pfmdr1 allele: 86N, 1042N, pfmdr1 copies: 1) | 0.655 | – | 5.02 | – | – | –
Plasmodium falciparum isolate 130 (pfmdr1 allele: 86N, 1042N, pfmdr1 copies: 3) | 0.545 | 5.51 | 5.08 | 1.76 | – | –
Plasmodium falciparum isolate 33 (pfmdr1 allele: 86Y, pfmdr1 copies: 1) | 1.07 | 6.37 | 8.59 | 2.63 | – | –
Plasmodium falciparum isolate 21 (pfmdr1 allele: 86N, 1042N, pfmdr1 copies: 2) | 1.3 | 70.4 | 7.94 | 1.43 | – | –
Plasmodium falciparum isolate 6 (pfmdr1 allele: 86N, 1042N, pfmdr1 copies: 1) | 0.356 | 7.16 | 3.47 | 2.19 | – | –
Plasmodium falciparum isolate 211 (pfmdr1 allele: 86N, 1042N, pfmdr1 copies: 2) | – | – | – | – | 112 | 4.11
Plasmodium falciparum isolate 481 (pfmdr1 allele: 86N, 1042N, pfmdr1 copies: 1) | 0.172 | 14 | 3.93 | 1.83 | – | –
Plasmodium falciparum isolate 173 (pfmdr1 allele: 1042D, pfmdr1 copies: 1) | 9.89 | – | 6.38 | – | – | –

Test System | EC50 of parasite growth (artesunate [1]) [ng/mL] | EC50 of parasite growth (mefloquine [2]) [ng/mL] | slope (artesunate [3]) | slope (mefloquine [4]) | EC50 of parasite growth (chloroquine [5]) [ng/mL] | slope (chloroquine [6])
Plasmodium falciparum isolate 448 (pfmdr1 allele: 86N, 1042N, pfmdr1 copies: 3) | – | 29.8 | – | 2.73 | – | –
Plasmodium falciparum isolate 289 (pfmdr1 allele: 1042D, pfmdr1 copies: 1) | 0.401 | 2.37 | 2.9 | 1.25 | – | –
Plasmodium falciparum isolate 204 (pfmdr1 allele: 86N, 1042N, pfmdr1 copies: 2) | 3.65 | 117 | 10 | 5.24 | – | –
Plasmodium falciparum isolate 93 (pfmdr1 allele: 86N, 1042N, pfmdr1 copies: 1) | 0.345 | 3.89 | 4.03 | 1.67 | – | –
Plasmodium falciparum isolate 196 (pfmdr1 allele: 86N, 1042N, pfmdr1 copies: 2) | – | 51.8 | – | 3.48 | – | –
Plasmodium falciparum isolate 383 (pfmdr1 allele: 86N, 1042N, pfmdr1 copies: 1) | 0.292 | 20.1 | 6.29 | 3.44 | – | –
Plasmodium falciparum isolate 134 (pfmdr1 allele: 86N, 1042N, pfmdr1 copies: 2) | 1.86 | 63 | 4.29 | 1.87 | – | –
Plasmodium falciparum isolate 28 (pfmdr1 allele: 86N, 1042N, pfmdr1 copies: 5) | 3.7 | 141 | 6.85 | 6.27 | – | –
Plasmodium falciparum isolate 107 (pfmdr1 allele: 86N, 1042N, pfmdr1 copies: 3) | – | – | – | – | 141 | 6.65
Plasmodium falciparum isolate 31 (pfmdr1 allele: 86N, 1042N, pfmdr1 copies: 2) | 6.5 | – | 10 | – | – | –
Plasmodium falciparum isolate 401 (pfmdr1 allele: 86N, 1042N, pfmdr1 copies: 3) | – | 66.4 | – | 6.64 | – | –
Plasmodium falciparum isolate 154 (pfmdr1 allele: 86N, 1042N, pfmdr1 copies: 1) | 1.31 | 21 | 9.72 | 2.91 | – | –
Plasmodium falciparum isolate 60 (pfmdr1 allele: 86N, 1042N, pfmdr1 copies: 1) | – | 62.9 | – | 9.66 | – | –
Plasmodium falciparum isolate 163 (pfmdr1 allele: 86N, 1042N, pfmdr1 copies: 1) | 0.623 | 12.8 | 3.34 | 2.75 | – | –
Plasmodium falciparum isolate 9 (pfmdr1 allele: 86N, 1042N, pfmdr1 copies: 3) | – | 182 | – | 10 | – | –
Plasmodium falciparum isolate 355 (pfmdr1 allele: 86N, 1042N, pfmdr1 copies: 2) | – | – | – | – | 266 | 4.26
Plasmodium falciparum isolate 356 (pfmdr1 allele: 86N, 1042N, pfmdr1 copies: 3) | 1.96 | 8.74 | 9.98 | 0.837 | – | –
Plasmodium falciparum isolate 166 (pfmdr1 allele: 86N, 1042N, pfmdr1 copies: 1) | 0.297 | 3.33 | 3.53 | 3.09 | – | –
Plasmodium falciparum isolate 118 (pfmdr1 allele: 86N, 1042N, pfmdr1 copies: 3) | – | – | – | – | 357 | 9.9
Plasmodium falciparum isolate 62 (pfmdr1 allele: 1042D, pfmdr1 copies: 1) | 4.77 | 61.5 | 6.16 | 1.37 | – | –
Plasmodium falciparum isolate 152 (pfmdr1 allele: 86N, 1042N, pfmdr1 copies: 2) | – | 40.8 | – | 3.17 | – | –
Plasmodium falciparum isolate 92 (pfmdr1 allele: 86N, 1042N, pfmdr1 copies: 1) | – | – | – | – | 184 | 3.46
Plasmodium falciparum isolate 191 (pfmdr1 allele: 86N, 1042N, pfmdr1 copies: 3) | 2.3 | 120 | 6.28 | 2.61 | – | –
Plasmodium falciparum isolate 102 (pfmdr1 allele: 86N, 1042N, pfmdr1 copies: 2) | 0.448 | 5.67 | 2.03 | 1.17 | – | –
Plasmodium falciparum isolate 368 (pfmdr1 allele: 1042D, pfmdr1 copies: 1) | 0.427 | 2.5 | 3.88 | 3.69 | – | –
Plasmodium falciparum isolate 142 (pfmdr1 allele: 86N, 1042N, pfmdr1 copies: 3) | – | 87.4 | – | 5.89 | – | –
Plasmodium falciparum isolate 249 (pfmdr1 allele: 86N, 1042N, pfmdr1 copies: 1) | 1.66 | – | 9.98 | – | – | –
